FireProtDB (doi:10.1110/ps.041085005)
Several values for one entry are separate records, joined by “and”; a condition that tells them apart may be missing. Equal entries are not always repeated.

Details: Gallus gallus, reversible: Yes
[1] = pH 6, Thermal, DSC, Sodium citrate 11 mM
[2] = pH 7, 20 °C, GdnHCl, Fluorescence, HEPES/NaOH 50 mM

With “Lysozyme C wild type (chain not printed)” the Tm [1] was 74.3 °C and 73.7 °C, the “unfolding enthalpy (calorimetric)” value [1] was 490 kJ/mol and 469 kJ/mol and the denaturant m value [2] was 2.58 kcal/mol/M and 2.34 kcal/mol/M and 3.11 kcal/mol/M. The “denaturant midpoint (higher = more stable)” value [2] was 4 M and 4.4 M and the unfolding free energy [2] was 44.2 kJ/mol and 43.2 kJ/mol and 54 kJ/mol.
